# “And” between values parts separate entries of the source, which are not always exact repeats. Equal values may be shown once. Screen size: about 360,000 compounds; about 2,600 (0.72%) were called active. The shares of active, inactive and inconclusive entries below differ from those in the screen. The call rests on the fitted dose curve; in most records, active means well fitted inhibition curve with a large enough effect; inconclusive means small, poorly fitted or top-dose-only effect; inactive means no such curve, though single readings can be large or run the other way. A potency beside an inconclusive call is a rough fit, not a confirmed value.
# Test: Primary qHTS for Inhibitors of ATXN expression; further: nearly all actives have a fitted effect of over 55% in size
# Conditions: HEK-293 ATXN2-luciferase reporter, luminescence, 24 h; activity change, negative = inhibition: at 57 µM (top of the series)
# In short: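 qHTS (up to 57 uM final) was run with 24 h compound exposure of reporter cells at 37 °C. Each well was multiplexed: SteadyGlo luminescence measured ATXN2-luciferase expression after a fluorogenic Gly-Phe-AFC viability readout (25 uM final).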
# On the % scale 0 is the no-effect control and ±100 the full control effect; potency means the concentration at half of the fitted maximal effect; tags describe the fitted curve by direction and shape.
Structure (SMILES),Potency,"activity change, negative = inhibition"
S=C(Nc1cc(Cl)ccc1Oc1ccccc1)N1CCN(c2ccccn2)CC1,"inconclusive: 25.1 µM [inhibitor, single point]",
CCOc1ccc(NC(=O)COC(=O)CCS(=O)(=O)c2ccc(C)cc2)cc1,"inconclusive: 8.44 µM [inhibitor, single point]",
CC(=O)Nc1cc[n+](C(C)C(=O)c2ccccc2)cc1 (stereo not given),inactive,
OCC1(Cc2ccccc2)CCN(Cc2ccc(-c3ccco3)cc2)CC1,,inconclusive: -39.4% [inhibitor]
COc1cc(/C=N/NC(=O)c2ccc(NC(=O)C3CCCCC3)cc2)ccc1O,"inconclusive: 20 µM [inhibitor, partial curve, poor fit]",
CC(=O)N1C[C@@H](CO)[C@@H](N(C)C(=O)C2CCCCC2)C[C@H]1c1ccccc1,inactive,
COC(C/C=C/C(=O)[C@H](C)OCc1ccccc1)OC,"inconclusive: 39.8 µM [inhibitor, single point]",
CN(C)CCNc1ncnc2c1ncn2[C@H]1CN(Cc2ccc(-c3ccccc3)cc2)C[C@@H](CO)O1,"inconclusive: 25.1 µM [inhibitor, partial curve]",
CC(=O)Nc1ccc(C=NNc2ccc([N+](=O)[O-])cc2S(=O)(=O)Nc2ccccc2C(=O)O)cc1,inactive,
O=C(Nc1nnc(-c2ccc3c(c2)OCCO3)o1)c1ccc(Cc2ccccc2)cc1,"inconclusive: 28.2 µM [inhibitor, single point]",
CSc1cccc(Nc2cc(C(=O)NCCCN(Cc3ccccc3)C(C)C)c3ccccc3n2)c1,active: 25.1 µM,
Cc1c(C(=O)OC/C(O)=C(\C#N)c2nc3ccccc3[nH]2)oc2ccccc12,"inconclusive: 31.6 µM [inhibitor, single point]",
CCCCNC(=NCc1cccc(C(F)(F)F)c1)Nc1ccccc1,"inconclusive: 17.8 µM [inhibitor, partial curve, poor fit]",
Cc1ccc(S(=O)(=O)/C(=C/Cl)NC(=O)c2ccccc2)cc1,active: 10 µM,
CC(=O)NC1=C(N(C)C2CCS(=O)(=O)C2)C(=O)c2ccccc2C1=O (stereo not given),"inconclusive: 37.7 µM [inhibitor, single point]",
CCOC(=O)C1=C(C)NC(=O)NC1c1ccc(Br)s1 (stereo not given),inactive,
O=C(O)CCC(=O)N1CC=C(c2ccccc2)CC1,inactive,
Cc1nnc(N/N=C/c2ccccn2)[nH]c1=O,active: 2 µM,
O=C(Nc1ccccn1)c1ccc(Cl)c(S(=O)(=O)N2CCc3ccccc32)c1,inactive,
CC(C)(CC(=O)NCc1ccc(Cl)cc1Cl)CC1=NS(=O)(=O)c2ccccc2N1,active: 25.1 µM,
CN1CCN(C(c2ccc(Br)cc2)c2cc(Cl)c3cccnc3c2O)CC1 (stereo not given),"inconclusive: 31.6 µM [inhibitor, single point]",
O=C1c2ccccc2-c2onc3ccc(Oc4ccccc4)c1c23,"inconclusive: 39.8 µM [inhibitor, single point]",
COc1ccc(S(=O)(=O)c2cc3cc(C(C)(C)C)cc(O)c3oc2=O)cc1,"inconclusive: 39.8 µM [inhibitor, single point]",

Structure (SMILES),Potency,"activity change, negative = inhibition"
CN(C)c1ccc(NS(=O)(=O)c2ccc(-c3csnn3)cc2)cc1,"inconclusive: 0.891 µM [inhibitor, full curve, poor fit]",
CCNC(=S)N/N=C(\C)c1ccc2ccccc2c1OC(F)F,"inconclusive: 31.6 µM [inhibitor, single point]",
Oc1c(Cl)cc(Cl)c2cccnc12,"active: 12.6 µM and active: 24.3 µM and inconclusive: 5.01 µM [inhibitor, full curve, poor fit]",
Cc1ccc(C(NC(=O)C2CCN(Cc3ccc(Oc4ccccc4)cc3)CC2)c2ccccn2)cc1 (stereo not given),"inconclusive: 35.5 µM [inhibitor, single point]",
N=C1SCC(=O)N1c1ncc(Cc2cccc(Cl)c2)s1,"inconclusive: 39.8 µM [inhibitor, single point]",
Cc1ccc(S(=O)(=O)c2[nH]c(-c3ccccc3)nc2SC(C)C(=O)O)cc1 (stereo not given),inactive,
COc1ccc(N2CCN(CCCNC(=O)c3nnc(Cc4ccccc4Cl)o3)CC2)cc1,inactive,
CCC(=O)c1ccccc1OCCCN1CCC(Cc2ccccc2)CC1,"inconclusive: 17.8 µM [inhibitor, partial curve]",
CN(C)CCC(c1ccc(Br)cc1)c1ccccn1 (stereo not given),"inconclusive: 39.8 µM [inhibitor, single point]",
C[C@H](NC(=O)c1nc[nH]c1C(=O)NCc1ccc(CNC(=O)OC(C)(C)C)cc1)C(=O)OCc1ccccc1,"inconclusive: 28.2 µM [inhibitor, single point]",
CN(C)CCC=C1c2ccccc2COc2ccc(CC(=O)O)cc21,inactive,
Cc1c(Cl)cccc1NC(=O)CCN1CCCCC1,"inconclusive: 31.6 µM [inhibitor, partial curve, poor fit]",
CCc1ccc2nc(N(CCCN(C)C)C(=O)c3ccc4c(c3)OCCO4)sc2c1,"inconclusive: 39.8 µM [inhibitor, single point]",
NC(=O)c1c(NC(=O)CCCC(=O)O)sc2c1CCCCCC2,"inconclusive: 3.16 µM [inhibitor, partial curve, poor fit]",
CCn1c(COc2ccc3c(c2)CCCC3)nnc1SCC(=O)Nc1nccs1,"inconclusive: 28.2 µM [inhibitor, single point]",
CN1CCN(C2=C(Cl)C(=O)c3ccccc3C2=O)CC1,active: 23.8 µM,
CN(C)S(=O)(=O)NC(c1ccccc1)c1ccccc1,inactive,
COc1ccc(CCNCC(=O)N2C(C)CCCC2C)cc1OC (stereo not given),inactive,
COc1cccc(C2=CC(c3cccc(OC)c3OC(F)F)n3nnnc3N2)c1 (stereo not given),inactive,
COc1ccc(C(=O)c2c(C(F)(F)F)oc3c2C(=O)c2ccccc2C3=O)cc1,active: 31.6 µM,
Fc1ccc2[nH]c3c(N4CCc5ccccc5C4)ncnc3c2c1,"inconclusive: 20 µM [inhibitor, partial curve, poor fit]",
CCN1CCN(Cc2ccc(NC(=O)c3ccc(C)c(NC(=O)c4ccnnc4)c3)cc2C(F)(F)F)CC1,inactive,
